The text below walks through data of patent US20260200947A1, “FUSED CYCLIC COMPOUNDS AND USE THEREOF” (Jacobio Pharmaceuticals Co., Ltd., priority 2022, published 2026).

Like-named read-outs stand apart in the source and are kept apart here.

The test system of experiment [1] is AGS cells (K-Ras G12D).
In experiment [2] the test system is AGS cells (K-Ras G12D). This is another data set of the same source.
Experiment [3] relates to SW620 cells (K-Ras G12V).
The subject of experiment [4] is Capan-2 cells (K-Ras G12V).
Experiment [5] concerns AsPC-1 cells (K-Ras G12D).
The target in experiment [6] is GppNp-KRAS G12V (Homo sapiens, UniProt P01116, G12V). Kind of experiment: biochemical.
The target in experiment [7] is GppNp-KRAS G12D (Homo sapiens, UniProt P01116, G12D). Kind of experiment: biochemical.
Experiment [8] has as its system SW620 cells (K-Ras G12V). In words: Phospho-ERK1/2(THR202/TYR204) HTRF assay, SW620. Particulars: Homo sapiens, SW-620, 2 hours incubation, read-out: pERK, IC50, SW620. Type of experiment: cell-based. On the technique in general: In TR-FRET formats the signal depends on donor and acceptor labels being close together.

What is called IC50 is the concentration that gives 50% inhibition. `C#Cc1c(F)ccc2cc(N)cc(-c3nc4c5c(nc(OC[C@@]67CCCN6C[C@H](F)C7)nc5c3F)N3CCC=CCC3N4C)c12` (stereo partly drawn) [Compound 72]: the half-inhibitory concentration (IC50) was found to be 27.3 nM in experiment [1]; 20.9 nM in experiment [2]; 79.6 nM in experiment [3]; 10.5 nM in experiment [4]; 145 nM in experiment [5]; 257 nM in experiment [6]. Besides, it took 105 nM to reach half-maximal inhibition in experiment [7] (IC50).

Take `[2H][C@]1(F)CCCCN2c3nc(OC[C@@]45CCCN4C[C@H](F)C5)nc4c(F)c(-c5cc(N)cc6ccc(F)c(C#C)c56)nc(c34)N(C)[C@@H]21` [Compound 95]: the IC50 in experiment [1] turned out to be 0.649 nM; in experiment [2], 17.8 nM; in experiment [3], 1 nM; in experiment [4], 1.38 nM; in experiment [5] it was 1.87 nM; in experiment [6], 27.3 nM. The same compound came in with an IC50 in experiment [7] of 8.34 nM.

In the case of `C[C@H]1CCOC[C@H]2N(C)c3nc(-c4cc(O)cc5ccc(F)c(F)c45)c(F)c4nc(OC[C@@]56CCCN5C[C@H](F)C6)nc(c34)N12` [Compound 73], the concentration for half-maximal inhibition (IC50) is 11.7 nM in experiment [1]; 6.87 nM in experiment [2]; 28.9 nM in experiment [3]; 5.6 nM in experiment [4]; 128 nM in experiment [5]; 503 nM in experiment [6]. Inhibition in experiment [7] was half-maximal at 140 nM (IC50).

For `C#Cc1c(F)ccc2cc(N)cc(-c3nc4c5c(nc(OCC6(CN(C)C)CC6(F)F)nc5c3F)N3CCCOC[C@H]3N4C)c12` (stereo partly drawn) [Compound 4], the half-inhibitory concentration (IC50) in experiment [1] amounted to 11.2 nM; in experiment [2], 18.2 nM; in experiment [3], 20.9 nM; in experiment [4], 3.85 nM; in experiment [5] it was 151 nM; in experiment [6], 292 nM. Besides, the half-inhibitory concentration (IC50) in experiment [7] amounted to 164 nM.

As for `C#Cc1c(F)ccc2cc(N)cc(-c3nc4c5c(nc(OC[C@@]67CC(=C)CN6C[C@H](F)C7)nc5c3F)N3CCCOC[C@H]3N4C)c12` [Compound 173], the IC50 is 3.95 nM in experiment [1], 9.99 nM in experiment [2], 7.4 nM in experiment [3] and 1.41 nM in experiment [4].

Take `C#Cc1c(F)ccc2cc(N)cc(-c3nc4c5c(nc(OC[C@@]67CCCN6C[C@H](F)C7)nc5c3F)N3CCCCC(C#N)C3N4C)c12` (stereo partly drawn) [Compound 101]: the IC50 in experiment [1] is 48.3 nM; in experiment [2], 128 nM; in experiment [3] it was 199 nM; in experiment [4] it was 25 nM; in experiment [5], 656 nM; in experiment [6], greater than 1000 nM.

For the compound `C#Cc1c(F)ccc2cc(O)cc(-c3nc4c5c(nc(OC[C@@]67CCCN6C[C@H](F)C7)nc5c3F)N3CCOCC3C4=C)c12` (stereo partly drawn) [Compound 12], the half-maximal inhibitory concentration (IC50) in experiment [8] is 34.4 nM.

For `C#Cc1c(F)ccc2cc(N)cc(-c3nc4c5c(nc(OCC67CC(C)CN6C[C@H](F)C7)nc5c3F)N3CCCOC[C@H]3CO4)c12` (stereo partly drawn) [Compound 32], the concentration for half-maximal inhibition (IC50) in experiment [8] was 22.7 nM.

In the case of `N#Cc1c(N)sc2c(F)ccc(-c3cc4c5c(nc(OC[C@@]67CCCN6C[C@H](F)C7)nc5c3F)N3CCCOC[C@H]3CO4)c12` [Compound 161], the half-maximal inhibitory concentration (IC50) in experiment [1] is 34.8 nM; in experiment [2], 18.5 nM; in experiment [3], 25.1 nM; in experiment [4], 48.4 nM; in experiment [5], 64.4 nM; in experiment [6] it was 101 nM. Further, the half-maximal inhibitory concentration (IC50) in experiment [7] stood at 53.8 nM.

As to `C#Cc1c(F)ccc2cc(N)cc(-c3nc4c5c(nc(OC[C@@H]6CCCN6C)nc5c3F)N3CCCOCC3N4C)c12` (stereo partly drawn) [Compound 111], the IC50 amounted to 52.1 nM in experiment [1]; 179 nM in experiment [2]; 159 nM in experiment [3]; 19.4 nM in experiment [4]; 410 nM in experiment [5].

On to `C#Cc1c(F)ccc2cc(N)cc(-c3nc4c5c(nc(OC[C@]67CC(=C)CN6C[C@H](F)C7)nc5c3F)N3CCCOC[C@H]3N4C)c12` [Compound 175], for which the IC50 in experiment [1] stood at 2.41 nM; in experiment [2], 7.39 nM; in experiment [3] it was 6.27 nM; in experiment [4], 0.784 nM.

Regarding `C#Cc1c(F)ccc2cc(N)cc(-c3nc4c5c(nc(OC[C@@]67CCCN6C[C@H](F)C7)nc5c3F)N3CC(F)=CCCC3N4C)c12` (stereo partly drawn) [Compound 79], the half-maximal inhibitory concentration (IC50) in experiment [1] is 8.24 nM; in experiment [2], 22.8 nM; in experiment [3] it was 70.7 nM; in experiment [4] it was 18.5 nM; in experiment [5], 110 nM.

On to `C#Cc1c(F)ccc2cc(N)cc(-c3nc4c5c(nc(OCC6(CN7CCOCC7)CC6)nc5c3F)N3CCCOC[C@H]3N4C)c12` [Compound 74], for which the half-inhibitory concentration (IC50) in experiment [1] was determined as 16.7 nM; in experiment [2], 112 nM; in experiment [3], 37.3 nM; in experiment [4], 2.24 nM; in experiment [5] it was 126 nM; in experiment [6], 344 nM. In experiment [7], this compound displayed a 50% inhibitory concentration (IC50) of 243 nM.

For the compound `C#Cc1c(F)ccc2cc(N)cc(-c3nc4c5c(nc(OC[C@@]67CCCN6CC(=C)C7)nc5c3F)N3CCCOC[C@H]3N4C)c12` [Compound 125], the IC50 in experiment [1] turned out to be 0.764 nM; in experiment [2], 3.67 nM; in experiment [3], 2.59 nM; in experiment [4], 0.905 nM; in experiment [5], 15.9 nM.

With `C#Cc1c(F)ccc2cc(N)cc(-c3nc4c5c(nc(OC[C@@]67CCCN6C[C@H](F)C7)nc5c3F)N3[C@@H]5CC5COC[C@@H]3N4C)c12` (stereo partly drawn) [Compound 159A], the concentration for half-maximal inhibition (IC50) in experiment [1] was 102 nM; in experiment [2] it was 71.4 nM; in experiment [4], 8.54 nM; in experiment [5], 687 nM.

As for `C#Cc1c(F)ccc2cc(N)cc(-c3nc4c5c(nc(OC[C@@]67CCCN6C[C@H](F)C7)nc5c3F)N3CCCC[C@@H](O)[C@H]3N4C)c12` [Compound 110], the IC50 in experiment [1] was 6.05 nM; in experiment [2], 30.7 nM; in experiment [3] it was 106 nM; in experiment [4], 17.5 nM; in experiment [5], 324 nM; in experiment [6] it was greater than 1000 nM. Further, the IC50 in experiment [7] stood at 244 nM.

On to `C#Cc1c(F)ccc2cc(N)cc(-c3nc4c5c(nc(OC[C@@]67CCCN6C[C@H](F)C7)nc5c3F)N3C(COCC[C@@H]3C)C4=C)c12` (stereo partly drawn) [Compound 128], for which the IC50 in experiment [1] came to 2.45 nM; in experiment [2], 3.43 nM; in experiment [4], 1.57 nM.

In the case of `C#Cc1c(F)ccc2cc(N)cc(-c3nc4c5c(nc(OCC6(CN7CC[C@@H](F)C7)CC6)nc5c3F)N3CCCOCC3N4C)c12` (stereo partly drawn) [Compound 82], the IC50 was 86.9 nM in experiment [1]; 370 nM in experiment [2]; 128 nM in experiment [3]; 19.9 nM in experiment [4]; 920 nM in experiment [5]; greater than 1000 nM in experiment [6]. In experiment [7], this compound registered a concentration for half-maximal inhibition (IC50) greater than 1000 nM.

With `[2H]C#Cc1c(F)ccc2cc(N)cc(-c3nc4c5c(nc(OCC67CCCN6CC(F)C7)nc5c3F)N3CCCOCC3N4C)c12` (stereo not drawn) [Compound 109], the concentration for half-maximal inhibition (IC50) stood at 2.02 nM in experiment [1], 0.885 nM in experiment [4], 56.9 nM in experiment [6] and 34.4 nM in experiment [7].

In the case of `C#Cc1c(F)ccc2cc(N)cc(-c3nc4c5c(nc(OC[C@@]67CCCN6C[C@H](F)C7)nc5c3F)N3C(C5CCCO5)CCOCC3N4C)c12` (stereo partly drawn) [Compound 100], the concentration for half-maximal inhibition (IC50) in experiment [1] came to 51.2 nM; in experiment [2], 50.1 nM; in experiment [3], 119 nM; in experiment [4], 5.87 nM; in experiment [5] it was 444 nM; in experiment [7], 647 nM.

On to `C#Cc1c(F)ccc2cc(N)cc(-c3nc4c5c(nc(OC[C@@]67CCCN6C[C@H](F)C7)nc5c3F)N3CC(CF)COCC3N4C)c12` (stereo partly drawn) [Compound 124], for which the IC50 is 19.7 nM in experiment [1], 15 nM in experiment [4], greater than 1000 nM in experiment [6] and 403 nM in experiment [7].

`C#Cc1c(F)ccc2cc(N)cc(-c3nc4c5c(nc(OC[C@@]67CCCN6C[C@H](F)C7)nc5c3F)N3CC(CC#N)COCC3N4C)c12` (stereo partly drawn) [Compound 126]: the IC50 is 42.1 nM in experiment [1], 66.2 nM in experiment [4], greater than 1000 nM in experiment [6] and 255 nM in experiment [7].

With `C#Cc1c(F)ccc2cc(N)cc(-c3nc4c5c(nc(OCC67CCCN6CC(F)C7)nc5c3F)N3CCC5CC5C(F)C3N4C)c12` (stereo not drawn) [Compound 116], the IC50 is 20.8 nM in experiment [1]; 23.6 nM in experiment [3]; 5.97 nM in experiment [4]; 237 nM in experiment [5]; 203 nM in experiment [6]; 65.8 nM in experiment [7].

Regarding `C[C@H]1CCOC[C@H]2COc3c(Cl)c(-c4ccc(F)c5sc(N)c(C#N)c45)c(F)c4nc(OC[C@@]56CCCN5C[C@H](F)C6)nc(c34)N21` [Compound 158], the half-inhibitory concentration (IC50) stood at 15.5 nM in experiment [1], 2.17 nM in experiment [3], 22.8 nM in experiment [4] and 5.06 nM in experiment [5].

As for `C#Cc1c(F)ccc2cc(N)cc(-c3nc4c5c(nc(OC[C@]67CC(=C)CN6C[C@@H](OC)C7)nc5c3F)N3CCCOC[C@H]3N4C)c12` [Compound 170], the IC50 is 91.6 nM in experiment [1], 29.6 nM in experiment [4], greater than 1000 nM in experiment [6] and greater than 1000 nM in experiment [7].

For `CN1c2nc(-c3ccc(F)c4sc(N)c(C#N)c34)c(F)c3nc(OC[C@@]45CCCN4C[C@H](F)C5)nc(c23)N2CCCOC[C@@H]12` [Compound 75], the IC50 came to 105 nM in experiment [1]; 109 nM in experiment [2]; 163 nM in experiment [3]; 23.4 nM in experiment [4]; 806 nM in experiment [5]; 880 nM in experiment [6]. The midpoint of inhibition in experiment [7], the IC50, lay at 386 nM.

In the case of `C#Cc1c(F)ccc2cc(N)cc(-c3nc4c5c(nc(OC[C@@]67CCCN6C[C@H](F)C7)nc5c3F)N3[C@@H](C)CCC[C@H](F)[C@H]3N4C)c12` [Compound 89], the IC50 in experiment [1] came to 0.624 nM; in experiment [2], 0.894 nM; in experiment [3], 1.98 nM; in experiment [4], 0.886 nM; in experiment [5], 2.67 nM.
